Results taken from PubChem BioAssay AID686979 (National Center for Advancing Translational Sciences (NCATS), 2013).
Where “and” joins values, the source holds several entries; their conditions need not be identical. Equal values may be shown once. Hit rate of the full screen: of about 420,000 compounds, about 50,000 (12%) were called active. The shares of active, inactive and inconclusive entries below differ from those in the screen. Calls come from the whole dose curve; as a rule, active = well fitted inhibition curve with a large enough effect; inconclusive = small, poorly fitted or top-dose-only effect; inactive = flat fitted curve, though single readings scatter. Where the call is inconclusive, the potency comes from a doubtful curve fit.

Assay: qHTS for Inhibitors of human tyrosyl-DNA phosphodiesterase 1 (TDP1): qHTS in cells in presence of CPT; note: nearly all actives have a fitted effect of over 55% in size
Conditions: chicken DT40 Tdp1-/-;hTDP1 cells + 20 nM CPT, ATP luminescence, 48 h; series mostly up to 46.2 µM
How it was run: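 Chicken DT40 Tdp1-/- cells stably complemented with human TDP1 were seeded at 400 cells/well in medium containing 20 nM camptothecin, exposed to pin-transferred compounds, and grown at 37 °C for at least 48 hr. Viability was read as ATP luminescence.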
Potency is the fitted concentration of half-maximal effect; tags give direction and shape of the fitted curve.

| Compound | Potency |
| --- | --- |
| COc1ccc(C(C(=O)NC(C)(C)C)N(CCc2ccc(OC)c(OC)c2)C(=O)CCC(=O)Nc2cc(C)on2)cc1 (stereo not given) | inconclusive: 29.1 µM [inhibitor, single point] |
| CN(CC(=O)Nc1ccccc1Cl)C(=O)c1ccc(COc2ccccc2)cc1 | inconclusive: 18.4 µM [inhibitor, single point] |
| O=C(OCn1ncc(Cl)c(Cl)c1=O)c1cccc(C(F)(F)F)c1 | inconclusive: 0.326 µM [inhibitor, full curve, poor fit] |
| OC(COCc1ccccc1)Cn1cnc2ccccc21 (stereo not given) | inconclusive: 16.4 µM [inhibitor, single point] |
| CCc1noc(C)c1C(=O)Nc1ccc(S(=O)(=O)N2CCC(C)CC2)cc1 | inconclusive: 25.9 µM [inhibitor, single point] |
| CCCc1cc(=O)[nH]c(Nc2ccc(OCC)cc2)n1 | inconclusive: 25.9 µM [inhibitor, single point] |
| S=C(Nc1cccc(Cl)c1Cl)NC1CCN(Cc2ccccc2)CC1 | active: 20.6 µM |
| Cc1ccc(-c2nc3ncccn3c2Nc2ccc3c(c2)OCO3)o1 | inconclusive: 6.51 µM [inhibitor, full curve, poor fit] |
| Cc1ccc(O)c(NC(=S)NC(=O)c2ccccc2Cl)c1 | inconclusive: 10.3 µM [inhibitor, partial curve, poor fit] |
| COc1ccc(-c2onc3ccc(C(=O)/C=C/N(C)C)cc23)cc1 | active: 13 µM |
| COc1cc(CC(=O)NC2CCCc3ccccc32)cc(OC)c1OC (stereo not given) | inconclusive: 23.1 µM [inhibitor, single point] |
| FC(F)(F)c1cccc(-c2ccc(/C=N/Nc3nncc(-c4ccccc4)n3)o2)c1 | inconclusive: 4.61 µM [inhibitor, partial curve] |
| Cc1c(CCO)sc[n+]1CC(=O)c1ccc2ccccc2c1 | inconclusive: 35.5 µM [inhibitor, single point] |
| COC(=O)C1=CN(c2ccc(Oc3ccccc3)cc2)C(N)=C(C#N)C1c1cccc(OC)c1OC (stereo not given) | active: 14.6 µM |
| COc1ccccc1NC(=O)C1=C(C)Nc2nc(-c3ccco3)nn2C1c1ccccc1F (stereo not given) | active: 16.4 µM |
| CCCCCCCCCCCCN1C/C(=C\C(=O)OCC)c2cc(C(F)(F)F)ccc2S1(=O)=O | inconclusive: 35.5 µM [inhibitor, single point] and inconclusive: 16.4 µM [inhibitor, partial curve] |
| Cc1ccc(Cn2c(C)c3cnn(CC(=O)NCCc4ccc(Cl)cc4)c(=O)c3c2C)cc1 | inconclusive: 11.6 µM [inhibitor, partial curve] |
| CC1Oc2ccccc2N(CC(=O)NCCN2CCOCC2)C1=O (stereo not given) | inactive |
| O=C1CC(N2CCCN(C3CC(=O)N(c4ccc(F)cc4)C3=O)CC2)C(=O)N1c1ccc(F)cc1 (stereo not given) | inconclusive: 20.6 µM [inhibitor, single point] |
| CCc1sc(-c2cc3ccc(O)cc3oc2=O)nc1-c1ccc(C)cc1 | inconclusive: 35.5 µM [inhibitor, single point] |
| CCOC(=O)c1c(C)[nH]c(C(=O)N/N=C\c2ccccc2O)c1C | active: 4.11 µM |
| Cc1cccc(S(=O)(=O)c2cn(C)c3cc(N4CCN(c5ccccc5)CC4)c(F)cc3c2=O)c1 | inactive |
| COc1cc(C(=O)NCCSc2ccc(Cl)cc2)cc(OC)c1OC | inconclusive: 29.1 µM [inhibitor, single point] |

| Compound | Potency |
| --- | --- |
| Cc1ccc2cc(CN(CCCN(C)C)C(=O)NCc3ccccc3)c(=O)[nH]c2c1C | inconclusive: 29.1 µM [inhibitor, single point] |
| O=C1c2ccccc2C(=O)N1CNc1ccccc1 | inconclusive: 29.1 µM [inhibitor, single point] |
| CC(C)(C)c1ccc(/C=C/C(=O)NC2CCS(=O)(=O)C2)cc1 (stereo not given) | inconclusive: 18.4 µM [inhibitor, single point] |
| Cc1ccc(C)c(NS(=O)(=O)c2ccc(NC(=O)CSc3ccc(Cl)cc3)cc2)c1 | inactive |
| COc1ccc(/C=N/N2C(=O)CSC2=S)cc1Br | inconclusive: 8.2 µM [inhibitor, partial curve] |
| Cc1ccccc1C(=O)N1CCN(c2ccc(NC(=O)c3ccc([N+](=O)[O-])o3)cc2)CC1 | active: 5.17 µM |
| O=C(N[C@@H](Cc1ccccc1)C(=O)N1CCN(S(=O)(=O)c2ccc(F)cc2)CC1)c1ccco1 | active: 14.6 µM |
| O=C(Nc1ccccc1)c1ccccc1Br | inactive |
| Cc1ccc(S(=O)(=O)NCCNC(=O)c2ccc(C)nc2)cc1 | inactive |
| CO/N=C/c1ccc(N2CCCC2)c([N+](=O)[O-])c1 | inactive |
| COc1ccc2ccc(OCC(=O)NCC3CCCO3)cc2c1 (stereo not given) | inconclusive: 29.1 µM [inhibitor, single point] |
| COc1ccc(CNC(=O)c2ccc(NC(=O)N3CCSc4ncccc43)cc2)cc1 | inconclusive: 20.6 µM [inhibitor, single point] |
| O=C(O)C(=Cc1cccc([N+](=O)[O-])c1)c1ccccc1 | inconclusive: 14.6 µM [inhibitor, single point] |
| Cc1c(C(=O)NCc2ccccc2CN2CCCC2)oc2ccc(F)cc12 | active: 20.6 µM |
| O=C(CN1C(=O)C2C3C=CC(C3)C2C1=O)NCc1ccc2c(c1)OCO2 (stereo not given) | inactive |
| Cc1ccc(CC(=O)NCC(c2ccco2)N(C)C)cc1C (stereo not given) | inactive |
| Cc1ccc(C)c(S(=O)(=O)N(C)C2(C)CCS(=O)(=O)C2)c1 (stereo not given) | inactive |
| O=C(NC1CCN(C(=O)Nc2cccc(Cl)c2)CC1)c1ccccc1 | inactive |
| CC(C)(C)c1ccc(C(=O)N2CCC2(C)C(=O)Nc2cnc3ccccc3c2)cc1 (stereo not given) | active: 23.1 µM |
| COc1ccc(C2CN=NC23CCc2ccccc2C3=O)cc1 (stereo not given) | inconclusive: 29.1 µM [inhibitor, single point] |
| O=C(NCCNc1ccc([N+](=O)[O-])cc1C(F)(F)F)c1cccc(F)c1 | inconclusive: 23.1 µM [inhibitor, single point] |
| O=S(=O)(c1ccc(NC(=S)NCCc2ccccc2)cc1)N1CCOCC1 | inconclusive: 29.1 µM [inhibitor, single point] |
